First the molecules themselves.
B1: C5148 (protein)
chain 1: QVQLQESGPGQVKPSETLSLTCTVSGDSVSSGSYYWSWIRQPPGKGLEWIGYVYYSGSTNYNPSLKSRVSMSVDTSKNQFSLKLNSVTAADTAVYYCARDSIVVRSAAYPLYYGMGVWGHGTTVTVSS
chain 2: QSVLTQPPSASGTPGQRVTISCSGGSSNIGSNTVDWYQQLPGTAPKLLIYSNNQRSSGVPDRFSGSKSGTSASLAISGLQSEDEADYYCATWDHSLNVYYVFGTGTKVTVL
B2: C5152 (protein)
chain 1: QVQLQESGPGLVKPSETLSLTCSVSGDSLSSYYWNWIRQPPGKGLEWIAYIDYGGITNYNPALKSRVTISVDTSKNQLSLKVNSVTAADTAMYYCAGRISADVFTWLDPWGQGTLVTVSS
chain 2: SYELTQPPSVSVAPGNTARISCGGNNIGSKSVHWYQQKPGQAPVLVVYDDRDRPPGIPERFSGSNSADTATLTINRVEAGDEADYSCQVWDSTSDHPVFGGGTKLTV
B3: C5149 (protein)
chain 1: QVQLVESGGGVVQPGTSLRLSCGASGFPFNNYDMHWVRQAPGKGLEWMAVISKDGNMKFYADSVKGRFTISRDNSKRALHLQMSSLRTEDTAVYYCVRDNGRLVPVFDLWGQGTLVTVS
chain 2: DIQMTQSPSSLSASVGDRVTITCRASQSIGGYLNWYQLKPGKAPKLLIYAASSLHTGVPSRFSGSGSGTDFTLTISSLQPEDFATYYCQQSYSTVSLTFGGGTKVEIK
B4: C5157 (protein)
chain 1: QVQLVESGGGVVQPGSSLRLSCAASGFSFSNYDMHWVRQAPGKGLEWVALISSDGNGKFYADSVKGRFTISRDNSKNTLNLQMNSLRPDDTAVYFCARDSPAHVIPLPLLDSWGQGTLVTVSS
chain 2: B3 chain 2 with G30I, G31N, L38Q, T56S, S93T, V95L, S96A
B5: C5151 (protein)
chain 1: QVQLQESGPGLVKPSETLSLICTVSGNSLSSYYWSWIRQSPGKGLEWIGHIDYSRSTNYNPSLKSRATISVDTSKNQVSLKLRSVTAADTAMYYCATRIAADAWTWFDPWGQGTLVTVSS
chain 2: SYELTQPPSVSVAPGKTARVICGGNNIGNENVHWYQQKSGQAPVLVVYDNSNRPSGIPERFSGSNSGNTATLTISRVEAGDEADYYCQLWDRVSDHPVFGPGTMVTV
B6: C5153 (protein)
chain 1: QVQLQESGPGLVKSSETLSLTCSVSGGSLSSYRWNWIRQPPGKGPEWIGYISYSGGKNHNPSLKSRLTISVDTSKNQISLKLTSVTAADTAVYYCAAMIDAPRYNWFYPWGHGTLVTVSS
chain 2: SYELTQPPSVSVAPGKTARITCGGNNIRSKGVHWYQQKPGQAPVLVLYDDSDRPSGIPERFSGSNSGNTATLTISRVEDGDEAGYYCQVWENNSDHPIFGGGTKLTVL
B7: C5142 (protein)
chain 1: EVQLVESGGGLVQPGGSLRLSCSASGFTFSSYAIHWVRQAPGRGLEYVSAISNDGGSTYNADSVRGRFTISRDNSKNTLYLQMRSLRAEDTAVYYCVKGTSSSYWGYFDYWGQGTLVTVSS
chain 2: SYELTQPPSVSVAPGKTARITCGGNNIGSKSVHWYQQKPGQAPVVVVYDDSDRPSGIPERFSGSNSGNTATLTISRVEAGDEADYYCQVWDSSVVFGGGTKLTVL
B8: C5141 (protein)
chain 1: QLQLQESGPGLVKPSETLSLTCTVSGASINSDNYFWGWIRQPPGKGLEWIASIYYSGRTSYYNPSLKSRVTINVDTSKNQVSLKLSSLIAADTAVYYCARATWLRGGFDPWGQGTLVTVS
chain 2: NFMLTQPQSVSESPGKTVTISCTGSSGSIASNYVHWYQQRPGSAPTIVIYEDTQRPSGVPDRFSGSIDSSSNSASLTISGLKTEDEADYYCQSYDVTNHYVFGPGTKVTVL
B9: C5147 (protein)
chain 1: QVQLQESGPGLVKPSETLSLTCNVSGASISDFYWSWIRQPPGKGLEWIGFIFYPGGTTYNPSLKSRVIMSVDTSKNQFSLNLTSVTAADTALYYCARQSTVTTYGGISFDPWGRGTLVTVSS
chain 2: SYELTQPPSVSVSPGQTASITCSGDKLGHNYASWYQQKPGQSPVLVLYLDYRRPSGIPERFSGSKSGNAATLTISGTQAMDEADYYCQTWGSNTVVFGGGTKLTV
B10: C5154 (protein)
chain 1: QVQLVQSGAEVKKPGSSVKVSCKASGRTFSTYTITWVRQAPGQGLEWVGRIIPILGITDYAQKFQGRVTITADKSTTTAYMELSSLRSEDTAVYYCARDLLPHHYDSGISKDAFDIWGQGTMVTVSS
chain 2: DIQMTQSPSSLSASVGDRVTITCRASQGISTYLNWYQQKPGNAPKLLIYAASSLQSGVPSRFSGSGSGTDFTLTISSLQPEDFATYYCQQSYSTPFTFGPGTKVDIK
B11: C5144 (protein)
chain 1: QVQLVESGGGVVQPGRSLRLSCAASGFTFSTYGMHWVRQAPGKGLEWMAVVSSDGRNEYYADSVKGRFTISRDNSNNTLYLQMSGLRAEDTAVYYCAKSKVLWFGQLQARDYYYYGLDVWGQGTTVTVSS
chain 2: AIRMTQSPSSLSASVGARVTITCRASQGISTSLAWYQQKPGKTPKLLIYDASNLESGAPSRFSGSGSGTDFTLTISSLQPEDFATYYCQQLINYPLTFGGGTKVEIK
B12: C5155 (protein)
chain 1: EVQLVESGGGLVQPGGSLRLSCVASGFTFTDYDMHWVRQGPGQGLEWVSVIGTGGDTYYPDSVKGRFIISRDNAKNSFYLQMNSLRAGDTAVYYCARANYFGSSGYGDYHYGLDIWGQGTTVTV
chain 2: EIVMTQSPATLSVSPGERATLSCRASQIVRTNLAWYQQKPGQAPRLLIYGASTRAAGIPARFSGSGSGTEFTLTISSLQSEDFAIYYCQQYNIWPPLTFGGGTKVEIK
B13: C5037 (protein)
chain 1: EVQLVESGGTLVQPGGSLRLSCGVSGFIVSANYMSWVRQAPGKGLEWLSVIFPDGHTYYGDSVKGRFTISRGDSENTLYLQMDSLRADDTAVYYCARDRRIGSPYHYYGMDFWGQGTTVTVSS
chain 2: QSVLTQPPSAAGTPGQRVTISCSGSTSNIGSNFVNWYQQFPGAAPKLLIYSNDKRPSGVPDRFSGSKSGTSASLAISGLQSDDEADYYCSTWDDSLNGNVVFGGGTKLTVL
B14: C5143 (protein)
chain 1: QVQLVESGGGVVQPGRSLRLSCEASGFTFRTYAMHWVRLAPGKGLEWLAVISYDGEDTNYADSVKGRFTISRDNSKNTLHLQLNSLRREDTAVYYCAKTLGPYCSAGSCYSGTMDYWGQGALVTVSS
chain 2: DIQMTQSPSSLSASIGDSITITCQASHDISNHLNWYQQKPGKAPKLLINDASNLEAGVPSRFSGSGSGIDFTLSISSLQPEDIATYHCQQYDNLPWTFGQGTKVEI
B15: C5161 (protein)
chain 1: QVQLVESGGGVVQPGRSLRLSCAASGLTFSHYGMHWVRQAPGKGLEWVAVISSDGSNQYYADSVRGRFTISRDNSKNTMNLQMNSLRREDTAVYYCAKGGFYDDTGYYGFDYWGQGALVTVS
chain 2: EIVMTQSPTTLSVSPGERVTLSCRASQGIGTNLAWYQQKPGQAPRLLIYDASTRATGIPDRFSASGSETEFTLTITSLQSENIAVYYCQQYNGWPYTFGQGTKLEIK

Changes are numbered by the printed parent chain. Recombinant human monoclonal antibodies (heavy:light variable regions). ELISA EC50 on the named antigen, from 10 µg/ml down; IC50 against spike pseudovirus on HT1080-ACE2 cells, 48 h; lower = stronger. Calls: IC50 above 1,000 ng/ml = non-neutralizing; EC50 above 1,000 ng/ml = non-binder.

The source of these data is the supplement of paper PMC10300432.

One experiment addresses SARS-CoV-2 Omicron BA.1 spike pseudovirus. In words: pseudovirus neutralization IC50; higher = weaker neutralization. The procedure: (§1)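 Single-round luciferase reporter pseudovirus mixed with antibody dilutions and put on HT1080-ACE2 clone 14 cells for 48 h; signal relative to no-antibody wells, four-parameter fit.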
As for B1, the “pseudovirus neutralization IC50” value is greater than 1 µg/mL.

As for B2, the “pseudovirus neutralization IC50” value was 0.0119 µg/mL.

B3: the “pseudovirus neutralization IC50” value was 0.932 µg/mL.

Take B4: the “pseudovirus neutralization IC50” value is greater than 1 µg/mL.

With B5, the “pseudovirus neutralization IC50” value was determined as 0.00417 µg/mL.

As for B6, the “pseudovirus neutralization IC50” value is 0.118 µg/mL.

In the case of B7, the “pseudovirus neutralization IC50” value is greater than 1 µg/mL.

B8: the “pseudovirus neutralization IC50” value is greater than 1 µg/mL.

With B9, the “pseudovirus neutralization IC50” value was greater than 1 µg/mL.

On to B10, for which the “pseudovirus neutralization IC50” value was 0.0202 µg/mL.

For B11, the “pseudovirus neutralization IC50” value was greater than 1 µg/mL.

For the molecule B12, the “pseudovirus neutralization IC50” value is greater than 1 µg/mL.

As for B13, the “pseudovirus neutralization IC50” value came out at 0.141 µg/mL.

In the case of B14, the “pseudovirus neutralization IC50” value is greater than 1 µg/mL.

For the molecule B15, the “pseudovirus neutralization IC50” value was greater than 1 µg/mL.

The next experiment concerns the target SARS-CoV-2 Omicron BA.4/5 spike pseudovirus. The experiment is described as above. The procedure:
as §1
In the case of B1, the “pseudovirus neutralization IC50” value is greater than 1 µg/mL.

As for B2, the “pseudovirus neutralization IC50” value was greater than 1 µg/mL.

As to B3, the “pseudovirus neutralization IC50” value was greater than 1 µg/mL.

For the molecule B4, the “pseudovirus neutralization IC50” value is greater than 1 µg/mL.

Regarding B5, the “pseudovirus neutralization IC50” value worked out at 0.141 µg/mL.

With B6, the “pseudovirus neutralization IC50” value was greater than 1 µg/mL.

With B7, the “pseudovirus neutralization IC50” value was greater than 1 µg/mL.

With B8, the “pseudovirus neutralization IC50” value was greater than 1 µg/mL.

On to B9, for which the “pseudovirus neutralization IC50” value is 0.318 µg/mL.

Take B10: the “pseudovirus neutralization IC50” value is greater than 1 µg/mL.

Take B11: the “pseudovirus neutralization IC50” value was greater than 1 µg/mL.

Turning to B12, the “pseudovirus neutralization IC50” value is greater than 1 µg/mL.

B13: the “pseudovirus neutralization IC50” value is greater than 1 µg/mL.

Take B14: the “pseudovirus neutralization IC50” value is greater than 1 µg/mL.

In the case of B15, the “pseudovirus neutralization IC50” value is greater than 1 µg/mL.

For a further experiment, the target named is SARS-CoV-2 Wuhan-Hu-1 spike pseudovirus. Described as above. The procedure: as §1
B1: the “pseudovirus neutralization IC50” value was greater than 1 µg/mL.

In the case of B2, the “pseudovirus neutralization IC50” value is 0.00196 µg/mL.

As for B3, the “pseudovirus neutralization IC50” value came out at 0.211 µg/mL.

As for B4, the “pseudovirus neutralization IC50” value came to 0.94 µg/mL.

Take B5: the “pseudovirus neutralization IC50” value amounted to 0.00212 µg/mL.

As to B6, the “pseudovirus neutralization IC50” value is 0.000853 µg/mL.

As to B7, the “pseudovirus neutralization IC50” value came out at 0.59 µg/mL.

With B8, the “pseudovirus neutralization IC50” value worked out at 0.17 µg/mL.

With B9, the “pseudovirus neutralization IC50” value was 0.000701 µg/mL.

With B10, the “pseudovirus neutralization IC50” value turned out to be 0.00737 µg/mL.

For the molecule B11, the “pseudovirus neutralization IC50” value was 0.00207 µg/mL.

For the molecule B12, the “pseudovirus neutralization IC50” value is 0.598 µg/mL.

For B13, the “pseudovirus neutralization IC50” value was found to be 0.00126 µg/mL.

Turning to B14, the “pseudovirus neutralization IC50” value was greater than 1 µg/mL.

For B15, the “pseudovirus neutralization IC50” value was found to be 0.527 µg/mL.

The target of the next experiment is SARS-CoV-2 Wuhan-Hu-1 spike receptor-binding domain. In words: ELISA binding EC50; higher = weaker binding; ELISA of recombinant human antibody on coated antigen, from 10 µg/ml in fourfold dilutions; four-parameter fit.
Consider B1, for which the “ELISA binding EC50” value amounted to 0.0127 µg/mL.

Turning to B2, the “ELISA binding EC50” value came to 0.00367 µg/mL.

For the molecule B3, the “ELISA binding EC50” value was found to be 0.00533 µg/mL.

As for B4, the “ELISA binding EC50” value is 0.00669 µg/mL.

For B5, the “ELISA binding EC50” value turned out to be 0.00391 µg/mL.

Turning to B6, the “ELISA binding EC50” value is 0.0036 µg/mL.

On to B7, for which the “ELISA binding EC50” value amounted to 0.00507 µg/mL.

Turning to B8, the “ELISA binding EC50” value is 0.00622 µg/mL.

For B9, the “ELISA binding EC50” value was 0.00391 µg/mL.

With B10, the “ELISA binding EC50” value was determined as 0.00611 µg/mL.

Consider B11, for which the “ELISA binding EC50” value was 0.0042 µg/mL.

As for B12, the “ELISA binding EC50” value came to 0.00281 µg/mL.

As to B13, the “ELISA binding EC50” value turned out to be 0.00225 µg/mL.

In the case of B14, the “ELISA binding EC50” value was found to be 0.0033 µg/mL.

Consider B15, for which the “ELISA binding EC50” value came to 0.00639 µg/mL.
